Experimental data reported in the RNAGym collection of RNA variant scans (doi:10.1093/nar/gkz1192).
Read counts are not given, so values of variants with three or more changes are uncertain.

B1: CPEB3 Ribozyme (parent)
chain: UAACAGGGGGCCACAGCAGAAGCGUUCACGUCGCAGCCCCUGUCAGAUUCUGGUGAAUCUGCGAAUUCUGCUGUAUAUCUC

Variants of: B1
Experiment: self-cleavage, relative activity (ratio to wild type); higher = more cleavage; in vitro, sequencing
Outline: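 Relative activity was defined as the cleaved/total read fraction for a variant divided by the same fraction for the unmutated ribozyme. CPEB3 self-cleaving ribozyme libraries were made by rounds of error-prone PCR, barcoded, and transcribed in vitro with T7 RNA polymerase for 5 hours at 37°C, and cleavage ran through transcription plus a 15 min DNase I step before EDTA. Illumina sequencing of template-switched reverse transcripts gave the reads, and DNA sequencing mapped the barcodes. Averages come from three batches, using variants with at least 5 reads.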
In the case of G6U A13U C59A U67A U74C, the self-cleavage is reported as 0.05.
With G7A A28G G61C the self-cleavage was 0.18.
With G7A A18G U72C the self-cleavage was 0.08.
In the case of G6U A20G U26C A35G U51C U76C, the self-cleavage is reported as 0.07.
With G6A U41A U43G U51C the self-cleavage was 0.22.
G6A U26C C44G U49C U66C A77G showed a self-cleavage of 0.06.
G6A A13G A18G A47G U69C showed a self-cleavage of 0.28.
With G6A A28U A35U U41A the self-cleavage was 0.23.
For G6A U25C U41C A45U U49C A75G, the self-cleavage was 0.06.
For G7A C23U U26A C34U U51C U74A, the self-cleavage was 0.17.
For G7A A18G A35U G36A A75U, the self-cleavage was 0.18.
With G6A A21G A35G U41C U67C the self-cleavage was 0.05.
G6A A47G U69A C71A gave a self-cleavage of 0.31.
G6A U26C A35G U48C showed a self-cleavage of 0.18.
Variant G6A A13G A28G C29U G33C C68A U78A has a self-cleavage of 0.04.
With G6A A35G C68U U80A the self-cleavage was 0.38.
G7C G9A U78A showed a self-cleavage of 0.06.
G7A A13G A15U U26C U51C U54C C62G showed a self-cleavage of 0.04.
G6A A20U U60A U67C U69C U76G showed a self-cleavage of 0.04.
G6A U41A U48C showed a self-cleavage of 0.32.
For G7U A15G U25C C37G U43C U67C A77U, the self-cleavage was 0.02.
G7U A47U A65G A75G gave a self-cleavage of 0.04.
In the case of A5U U72C A75G, the self-cleavage is reported as 0.86.
With G7U A20G U25C the self-cleavage was 0.5.
Variant G6U A18U U54C A75G U78C has a self-cleavage of 0.05.
With G6A U49C A65G U69A the self-cleavage was 0.17.
Variant G7U A15G U26A U48C A57G C62U A64G has a self-cleavage of 0.03.
In the case of G6A C23U U49A U78C, the self-cleavage is reported as 0.07.
G6A G22U U25C U41A showed a self-cleavage of 1.08.
Variant G6U A21G U26C U67C U80C has a self-cleavage of 0.13.
G6A A35U U67C U80C showed a self-cleavage of 0.36.
G6U G24A A57G U72C U80C showed a self-cleavage of 0.25.
In the case of A5U U58A A65G, the self-cleavage is reported as 0.14.
G6A A20G U49A gave a self-cleavage of 0.09.
In the case of G6A G9A U31A A56G U69C, the self-cleavage is reported as 0.06.
In the case of G6A A15G A20G A21U U26C G30A U69A, the self-cleavage is reported as 0.3.
Variant G6A A13G G55C A64U U76C has a self-cleavage of 0.07.
In the case of G7U A21G U51C U72C, the self-cleavage is reported as 0.05.
For G6A G8U U72A U80C, the self-cleavage was 0.23.
G7U C11U U48C U51A gave a self-cleavage of 0.05.
For G6C G8A A64G U69C U72C, the self-cleavage was 0.09.
With G6U A45G U48G the self-cleavage was 0.18.
G6A A28G U69C gave a self-cleavage of 0.17.
G7C U25A U43A showed a self-cleavage of 0.07.
With G7C C11A A18G A28U G36A U54C A77G the self-cleavage was 0.03.
In the case of G7C A21G U69C, the self-cleavage is reported as 0.25.
Variant G6A U26C U58C U80C has a self-cleavage of 0.26.
With G7C U51C U72C the self-cleavage was 0.07.
In the case of G6U A13U U60C G70U, the self-cleavage is reported as 0.18.
In the case of G6U A15G A64U U67G, the self-cleavage is reported as 0.34.
Work on G7U A13U U58A U72C U80C yielded a self-cleavage of 0.06.
G6A A47G C50A U60C showed a self-cleavage of 0.06.
G6C A13G A15G U25A U41C U66C U76A gave a self-cleavage of 0.04.
G6A U48A C59U gave a self-cleavage of 0.27.
In the case of G6A A13C C39U A45G A47U U72A, the self-cleavage is reported as 0.05.
G7A A15G U48A A65G gave a self-cleavage of 0.39.
Variant G7A U26A U43A U69A has a self-cleavage of 0.24.
G7A G8U A57G C62U U66C U67A gave a self-cleavage of 0.03.
G6U U43C G73C gave a self-cleavage of 0.27.
Work on G6A A21G U26C A45G A56G C68G U76C yielded a self-cleavage of 0.07.
In the case of G6U A20G A56U, the self-cleavage is reported as 0.34.
Variant G7U A18U A45G A57G has a self-cleavage of 0.15.
Work on G6A U31A U51A A56U yielded a self-cleavage of 0.32.
G6U A15G A20G showed a self-cleavage of 0.11.
Variant G7A A21G A28U U41C U43C has a self-cleavage of 0.16.
G6A A56G U76C A77U gave a self-cleavage of 0.08.
With G7U A45C A75G the self-cleavage was 0.23.
Variant G7A C29A A47G U58A has a self-cleavage of 0.12.
G6A A56G U58A gave a self-cleavage of 0.31.
G7A A21G U43C A45G U48C U80C gave a self-cleavage of 0.05.
With G7A A20U U25C A65G U74A the self-cleavage was 0.05.
G7A A21U U43C U51C showed a self-cleavage of 0.06.
Variant G6A U26G G53A U72A has a self-cleavage of 0.06.
Work on G6A A21C A47U A56U A64U U67C yielded a self-cleavage of 0.07.
G7C A20G A21G U25C U51C A57G C81U gave a self-cleavage of 0.
For G6U A35G U51A, the self-cleavage was 0.45.
For G7C U26C U76C, the self-cleavage was 0.06.
For G7A A13C A15G U25C A57G U78C, the self-cleavage was 0.37.
A5U U60C U72A U80C gave a self-cleavage of 0.58.
In the case of G6A A21G U60A, the self-cleavage is reported as 0.03.
Work on G7U A45G A56G yielded a self-cleavage of 0.15.
With G6A A21C C34G the self-cleavage was 0.07.
Work on G6A U31C G33U A35U U49C U54C A57U yielded a self-cleavage of 0.05.
Work on G7U A15U U25G U26C U43C U72C yielded a self-cleavage of 0.06.
In the case of G6A U43A A75U, the self-cleavage is reported as 0.14.
Variant G7A A13G C37U has a self-cleavage of 0.22.
For G7A A20G U25C A28U U69C, the self-cleavage was 0.07.
G6U C11A A18G U31C U72C gave a self-cleavage of 0.23.
G6C U25G A47G showed a self-cleavage of 0.27.
G6U G8U A28U U48A showed a self-cleavage of 0.08.
In the case of G7A U26A U31A U41C U67A, the self-cleavage is reported as 0.05.
With G7U A20G A21G U26C A56U the self-cleavage was 0.16.
In the case of G7A A20U A35G, the self-cleavage is reported as 0.08.
In the case of A5U U54C U60G, the self-cleavage is reported as 0.34.
G6A G63U U69A showed a self-cleavage of 0.31.
Variant G7U A13C A28U U60A A65G has a self-cleavage of 0.17.
With G7U A15G G16A A20C U26C the self-cleavage was 0.05.
For G6A A45G U58C A64G U72A U80C, the self-cleavage was 0.03.
Work on G6A U66C U78C yielded a self-cleavage of 0.14.
Work on G6A U26A A45G yielded a self-cleavage of 0.11.
G6U G9A A18U G46A U60C C62U U76C gave a self-cleavage of 0.04.
With G6A U26C A56U the self-cleavage was 0.25.
Variant G7A A13G A35G A45G U67C U78C has a self-cleavage of 0.06.
G6A U74C U76C showed a self-cleavage of 0.57.
G7C U51C U76C showed a self-cleavage of 0.06.
G6A G8A A28G C40U U54C U67C showed a self-cleavage of 0.11.
With G6A C11G A13U A21U C29U A35G the self-cleavage was 0.22.
With G6U G19U A28U A64G U74A the self-cleavage was 0.28.
G7C A35C C62U showed a self-cleavage of 0.14.
G7C A18C A45G U54A A56G U58C U69C showed a self-cleavage of 0.11.
A5U U54C U80C showed a self-cleavage of 1.09.
G6A A21G U31G A56U A57G showed a self-cleavage of 0.07.
G7A C34U U48C A57U A64U showed a self-cleavage of 0.21.
Variant G6A U31A A45U U67G has a self-cleavage of 0.05.
G7A A15C U25C U26G U49C A56G U67A gave a self-cleavage of 0.
Work on G6U U41C A56U C62U U72C U76A yielded a self-cleavage of 0.04.
With G7U C17U A35G U67A the self-cleavage was 0.17.
In the case of G7A A21G U31A A47G, the self-cleavage is reported as 0.15.
For G7U C12U A18G A64G, the self-cleavage was 0.05.
With G7A A18G A20G U67C the self-cleavage was 0.07.
In the case of G7C G22A U25C U31C U43A, the self-cleavage is reported as 0.06.
For G6A A15G A65G U74C U76C, the self-cleavage was 0.14.
In the case of G6A A20G A21G U51A U66C, the self-cleavage is reported as 0.21.
With G6A U76C U80A the self-cleavage was 0.27.
With G7A G55C U67C the self-cleavage was 0.06.
For G7A A15G A18G G24U U25C U26C, the self-cleavage was 0.34.
G6A A15U U43C U72A U76A gave a self-cleavage of 0.08.
For G7A U51C U69A, the self-cleavage was 0.07.
G6U U60C U72A showed a self-cleavage of 0.14.
G7A U43C U49C A64G gave a self-cleavage of 0.33.
In the case of G7U G8A G55U U72A, the self-cleavage is reported as 0.05.
For G6A G63A U72A, the self-cleavage was 0.44.
In the case of G7A U51A G70U, the self-cleavage is reported as 0.16.
For G6A A21G U26A U31C A64U U78A, the self-cleavage was 0.13.
For G6A A18U A35U U51C U72A U76C, the self-cleavage was 0.09.
In the case of G6A U41C U54A G61U U72A, the self-cleavage is reported as 0.2.
For G7A G73U U76C, the self-cleavage was 0.42.
Variant G6A A28G G33A A45U U49C U74C has a self-cleavage of 0.04.
Variant G6A A28G U31A U67C has a self-cleavage of 0.13.
G7A C12G A15G C23G A64G showed a self-cleavage of 0.16.
With G7U A15G A35G G52C A56U the self-cleavage was 0.21.
G6A A13U C34U A77U showed a self-cleavage of 0.33.
For G7U A35C U41C A45G U58C U72A, the self-cleavage was 0.06.
G6A U31G G55A A56U A77U showed a self-cleavage of 0.06.
G7U A20C U41C gave a self-cleavage of 0.21.
Variant G7C C14U C23G U26A U31C C44G has a self-cleavage of 0.03.
G6U A15U A56G A77U showed a self-cleavage of 0.09.
With G7U C29U A47C U51A the self-cleavage was 0.15.
Work on G6A U26A U48C A56G A64U yielded a self-cleavage of 0.11.
Variant G6U U31C U54C has a self-cleavage of 0.07.
G6C A13U A28U gave a self-cleavage of 0.22.
G7A G33U U41C U48C U60A U74C showed a self-cleavage of 0.14.
G7A A45G U76C showed a self-cleavage of 0.08.
Variant G6U G42A A64U has a self-cleavage of 0.09.
G6A A15U C23G A28G U41C showed a self-cleavage of 0.35.
Variant G7U A64U U69C U72A G73U has a self-cleavage of 0.06.
With G6A A15G G36A C38U A56G C62U A75C the self-cleavage was 0.03.
Variant G6A G7U A13G A15U U49C has a self-cleavage of 0.31.
G7A A20G C29U U54C U60A showed a self-cleavage of 0.06.
A5U U60A G70U gave a self-cleavage of 0.22.
With G7A A15G U25C A47G U54A the self-cleavage was 0.06.
G7A G10A A65U gave a self-cleavage of 0.06.
G6U U66C A75G gave a self-cleavage of 0.13.
G6A U51A G61U C62U U67C U80C showed a self-cleavage of 0.23.
Variant G7A C38U A56G U78C has a self-cleavage of 0.05.
For G7U A21U A35U U80A, the self-cleavage was 0.19.
In the case of G7A A13U U76C U80A, the self-cleavage is reported as 0.05.
